Laboratory results taken from paper PMC12136788.
The other results are listed elsewhere or left out.

B1: chr1:233671823:233671924:+|3pUTR|ENSG00000135750|msi1|FALSE|unique (ssRNA)
RNA: GGGAGUUCUACAGUCCGACGAUCUGCUGCUGUGGUUAGAAGCAGAUUUUAUACUUUUAACUGGAAACUUUGGGGUUUGCAUUUAGAUCAUUUAGCUGAUGGCUAAAUAGCAAAAUUUAUAUUUAGAAGCAAAAAAAAAAAGCACAACAGAGGAUUGAGCAUCA
B2: chr7:106091418:106091523:-|3pUTR|ENSG00000008282|msi1|total|mutant (ssRNA)
RNA: GGGAGUUCUACAGUCCGACGAUCUUUACACCUUAAGCCUUAACAUGUAUCUUCAUUCAGAAAACAGUUAUAUUGUCAUACCACCGCCGGAAGAAAAACCUUUAUUUGGAAUAUACACUACUGUAAGUUUGUACAGAUCAUAUACAACAGAGGAUUGAGCAUCA
B3: chr3:130733575:130733676:-|CDS|ENSG00000196455|msi1|FALSE|unique (ssRNA)
RNA: GGGAGUUCUACAGUCCGACGAUCCGUCAAAGAGGUUCCUCGUAAUGAUAUCAAUAUUUAUCCGGAAUACAUUCUGCCAGGCAUAGCCCACUUAGCCCAAGAUGAUGCUACUAUCGUUAGACUAGCCUAUGCUGGUAAGAGUUUCAACAGAGGAUUGAGCAUCA
B4: chr6:36855602:36855703:-|3pUTR|ENSG00000137168|msi1|FALSE|unique (ssRNA)
RNA: GGGAGUUCUACAGUCCGACGAUCGUCAUGAAGCUUAGGAGGCCUGGCAUCUUGGGUGAGUUAGAGAUGGAAGUACAUUUUAAUAGGAUGCUUCUUUUCUCUUCCCCCAGUGCCUAGGUUGCCAGAGCAUUUGCACAAAUGCCCCAACAGAGGAUUGAGCAUCA
B5: chr7:92086252:92086353:+|CDS|ENSG00000127914|msi1|FALSE|unique (ssRNA)
RNA: GGGAGUUCUACAGUCCGACGAUCUCAUGAGAGCUUCUCAGACUGGCGAGGUGAACUACUGCUUGCCCUUCAACAAGUUUUCUUAGAAGAGCGUAGUGUUUUACUAGCAGCAUUUCGGACGGAGCUGACAGCUCUAGGUACUACCAACAGAGGAUUGAGCAUCA
B6: chr12:30637093:30637194:-|CDS|ENSG00000133704|unk|total|mutant (ssRNA)
RNA: GGGAGUUCUACAGUCCGACGAUCUGUCUACAUUUUUUUUUUCUUCAAAAUUUGCAGGCAUCAUGACCGGAAGAUGUGUAUAACCGGACUGAGUAUCCUUUUGGAAUUGCAAAAUCGACCUCCUGCAGCCGAUGCUGUGGUGGGCAACAGAGGAUUGAGCAUCA
B7: chr3:49657245:49657349:+|CDS|ENSG00000164061|unk|FALSE|unique (ssRNA)
RNA: GGGAGUUCUACAGUCCGACGAUCCAGCCGUAGUGGCAUCAAGAAGCGGCACUCCAUGCCACGCCUGCGGGAUGCCUGUGAGCUAGAGUCUGGGACUGAGCCCUGUGUGGUCAGGAGGAUUGCCGACAGCAGCGUGCAGACAGACAACAGAGGAUUGAGCAUCA
B8: chr6:125978377:125978478:+|3pUTR|ENSG00000111911|unk|total|mutant (ssRNA)
RNA: GGGAGUUCUACAGUCCGACGAUCAAUUUUGCCUCUAAUAACAUAAAGGGGGAAGAAACAUAAAGUGGUUCUCUUAAUAAAACCCGCAGAAAAUGUUGCUUUAUGGCAUGUUUUUGUAUCAAAGAGAAAUCAGAGGUUAAACUUCAACAGAGGAUUGAGCAUCA
B9: chr2:40113585:40113686:-|3pUTR|ENSG00000183023|msi1|total|mutant (ssRNA)
RNA: GGGAGUUCUACAGUCCGACGAUCUCAUUUUAUUUUUUUACUUAAAAGGCUAUUUUGAGCCCUGUUUCUUUCACUGUCCAGUCCCGUCCUCUUUGAUUAUAUCAGCCGUUGCUGAGUAAGAAAGAAGCCAGGGUGACCAACGGGCAACAGAGGAUUGAGCAUCA
B10: ENSG00000100393:stop:overlap|stop_codon|ENSG00000100393|stop_codon|NA|stop_codon (ssRNA)
RNA: GGGAGUUCUACAGUCCGACGAUCUCAGCACCGAUAACUCAGACUUGAAUUCAAACCUCUCACAGAGUACACUAGACAUACACUAGAGACACCUUGUAGUAUUUUGGGAGCAAAAAAAUUAUUUUCUCUUAACAAGACUUUUUGCAACAGAGGAUUGAGCAUCA
B11: chr10:78035461:78035635:+|CDS|ENSG00000138326|unk|total|mutant (ssRNA)
RNA: GGGAGUUCUACAGUCCGACGAUCCAUUGAUGUCCUUCACCCCGGGAAGGCGACAGUGCCUAAGACAGAAAUUCGGGAAAAACCCGCCAAAAUGUACAAGACCACACCGGAUGUCAUCUUUGUAUUUGGAUUCAGAACUCAUUUCAACAGAGGAUUGAGCAUCA
B12: chr7:93926053:93926159:+|CDS|ENSG00000127920|unk|total|mutant (ssRNA)
RNA: GGGAGUUCUACAGUCCGACGAUCGUCUAAAUGUUCUGAAGAAAUAAAGAACUAUAUUGAAGAACGUUCUGGAGAGGAUCCUCCCGUAAAGGGAAUUCCAGAAGACAAGAACCCCUUUAAAGAAAAAGGCAGCUGUGUUAUUUCCAACAGAGGAUUGAGCAUCA
B13: ENSG00000198589:be:win_5201|CDS|ENSG00000198589|bound_else_gene|NA|bound_elsewhere_windowed (ssRNA)
RNA: GGGAGUUCUACAGUCCGACGAUCCAGUCUCACCUUCCACCUUUAAUACAAGCAUACCUACCAAUGCUGUCAGUGUGGUUUCCUCAGUAGAUUCAGCCCAAGCCUCAGAUAUGGGAGGAGAAUCACCAGGCAGUAGAUCAUCUACAACAGAGGAUUGAGCAUCA
B14: chr1:27823432:27823533:+|3pUTR|ENSG00000117758|unk|FALSE|unique (ssRNA)
RNA: GGGAGUUCUACAGUCCGACGAUCUUUCAAUAAAAUUACUGUCUUGUAAUAUAAAUGUUGUCCACUUCCCUUUUCCACAGGCCUAGAACAGUUAAAGGGAACAUAAUUUGUUUAGGCUCCCACAUAAAUGUGAAUCUGGCCAACCAACAGAGGAUUGAGCAUCA

biological target: MSI1 full-length (mouse, UniProt Q61474 1-362); experiment: nsRBNS (natural sequence RNA bind-n-seq); RBNS binding buffer (assumed for nsRBNS): 25 mM Tris pH 7.5, 150 mM KCl, 3 mM MgCl2, 0.01% Triton X-100, 500 ug/ml BSA, 20 U/ml SUPERase-In, 4 C; UNK is unkempt and MSI1 is Musashi-1; names of the RNAs are library labels; protein concentration not given here; high values mean tight binding
Sequence of UniProt Q61474 (Q61474 whole entry): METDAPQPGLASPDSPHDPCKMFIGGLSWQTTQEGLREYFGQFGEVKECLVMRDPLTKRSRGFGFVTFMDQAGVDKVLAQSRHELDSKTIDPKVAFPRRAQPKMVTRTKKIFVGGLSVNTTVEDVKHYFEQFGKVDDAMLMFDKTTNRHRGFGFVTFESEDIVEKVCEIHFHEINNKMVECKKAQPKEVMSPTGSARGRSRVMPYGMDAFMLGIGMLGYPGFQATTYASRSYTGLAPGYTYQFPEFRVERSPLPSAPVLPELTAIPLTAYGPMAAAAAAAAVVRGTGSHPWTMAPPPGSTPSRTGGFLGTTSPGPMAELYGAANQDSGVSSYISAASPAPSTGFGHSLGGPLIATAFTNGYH

Binder	binding signal [enrichment R]
B1	4.72
B2	0.843
B3	2.89
B4	0.88
B5	0.358
B6	0.267
B7	0.478
B8	0.246
B9	0.413
B10	0.393
B11	0.343
B12	0.282
B13	2.3
B14	0.461
